Measurements from the supplement of paper PMC4166925.
± gives the standard deviation of the averaged measurements. Whole data set: some 33,000 sequences, median “E-score (dimensionless, -0.5 to 0.5)” near -0.049, cut for the highest 2% near 0.37. This is one part of the list.

What follows are sequences tested on T1, PmTbr T-box DNA-binding domain (GST fusion) (assay: PBM E-score of 8-mer (E-score (dimensionless, -0.5 to 0.5)); Tbr is Tbrain of the sea star Patiria miniata (Pm) or the sea urchin Strongylocentrotus purpuratus (Sp); higher = stronger binding preference; most listed sequences are background and not binding sites). Conditions: the construct has about 5 more residues each side.
T1 sequence: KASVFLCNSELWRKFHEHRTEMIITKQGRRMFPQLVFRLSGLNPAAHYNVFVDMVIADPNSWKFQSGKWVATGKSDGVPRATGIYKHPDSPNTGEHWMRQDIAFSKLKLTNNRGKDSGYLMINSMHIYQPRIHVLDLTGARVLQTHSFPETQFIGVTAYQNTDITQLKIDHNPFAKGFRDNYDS
Procedure: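 Universal protein-binding microarray (Agilent AMADID 016060, 60-bp probes with a 35-bp variable region) incubated with 200 nM GST-fused Patiria miniata Tbr T-box DNA-binding domain (residues 272-466) in PBS pH 7.5. Scored for every ungapped 8-mer (given with its reverse complement) by the Universal PBM Analysis Suite as E-score (modified Wilcoxon-Mann-Whitney enrichment, range -0.5 to 0.5; >0.45 counts as bound) and Z-score of median probe intensity. Two replicate arrays (datasets 1 and 2).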
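Also: 200 nM protein in PBS on universal arrays averaged over duplicate arrays.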

How did the “PBM E-score of 8-mer” value turn out when GCCGTTCA was run?
The value was -0.0278 ± 0.0069.

How did the “PBM E-score of 8-mer” value turn out when GAGACCTA was run?
Its value is -0.16 ± 0.033.

Which “PBM E-score of 8-mer” value does the source give for CCATAGAG here?
Its value is -0.173 ± 0.023.

Which “PBM E-score of 8-mer” value does the source give for ACCACAAT here?
The value was -0.0998 ± 0.059.

With ATGCCGAC as the sequence, how does the “PBM E-score of 8-mer” value read?
The value was 0.0808 ± 0.019.

With GCCGCCGC as the sequence, how does the “PBM E-score of 8-mer” value read?
Its value is -0.149 ± 0.089.

With ATGGGGAC as the sequence, how does the “PBM E-score of 8-mer” value read?
The value was -0.235 ± 0.033.

How did the “PBM E-score of 8-mer” value turn out when ACCTCTCA was run?
Its value is 0.267 ± 0.034.

For CTACTAAC, which “PBM E-score of 8-mer” value is on record?
Its value is 0.169 ± 0.017.

For CAAAGACG, which “PBM E-score of 8-mer” value is on record?
Its value is 0.144 ± 0.014.

AACGCCAC was tested. Which “PBM E-score of 8-mer” value did it give?
The value was 0.253 ± 0.026.

How did the “PBM E-score of 8-mer” value turn out when CATGATTA was run?
The value was -0.115 ± 0.049.

AAAGCAGC was tested. Which “PBM E-score of 8-mer” value did it give?
Its value is -0.00106 ± 0.013.

Which “PBM E-score of 8-mer” value does the source give for CTCATCGA here?
Its value is -0.173 ± 0.021.

With ACTACCCG as the sequence, how does the “PBM E-score of 8-mer” value read?
The value was -0.0752 ± 0.029.

CAAGACAG was tested. Which “PBM E-score of 8-mer” value did it give?
The value was -0.0983 ± 0.038.

Which “PBM E-score of 8-mer” value does the source give for AGACGGTG here?
Its value is 0.0205 ± 0.033.

CAGCAATG was tested. Which “PBM E-score of 8-mer” value did it give?
Its value is 0.178 ± 0.039.

CTACCTTC was tested. Which “PBM E-score of 8-mer” value did it give?
Its value is -0.0424 ± 0.013.

For ACGAGTTC, which “PBM E-score of 8-mer” value is on record?
Its value is 0.0367 ± 0.01.

CCCAGCGA was tested. Which “PBM E-score of 8-mer” value did it give?
The value was -0.0742 ± 0.03.

For ACACAGAT, which “PBM E-score of 8-mer” value is on record?
Its value is 0.0624 ± 0.058.

For GGCCAACA, which “PBM E-score of 8-mer” value is on record?
Its value is 0.0288 ± 0.058.

How did the “PBM E-score of 8-mer” value turn out when CAATCGAC was run?
Its value is 0.102 ± 0.015.

How did the “PBM E-score of 8-mer” value turn out when ACGAGAGT was run?
The value was -0.0209 ± 0.093.

With AGGTTTCC as the sequence, how does the “PBM E-score of 8-mer” value read?
The value was -0.109 ± 0.03.

Which “PBM E-score of 8-mer” value does the source give for GTTATTTA here?
The value was -0.0965 ± 0.028.

With AGCTTAGC as the sequence, how does the “PBM E-score of 8-mer” value read?
The value was -0.0359 ± 0.0015.

AAAGCTGA was tested. Which “PBM E-score of 8-mer” value did it give?
The value was -0.146 ± 0.037.

Which “PBM E-score of 8-mer” value does the source give for ATGAATAG here?
Its value is -0.127 ± 0.053.

AGAGGAAC was tested. Which “PBM E-score of 8-mer” value did it give?
Its value is -0.288 ± 0.0084.

CTCCTCCA was tested. Which “PBM E-score of 8-mer” value did it give?
The value was -0.0795 ± 0.023.

How did the “PBM E-score of 8-mer” value turn out when CCCTTAGG was run?
Its value is 0.026 ± 0.015.

For GTGAAAAA, which “PBM E-score of 8-mer” value is on record?
The value was 0.336 ± 0.054.

How did the “PBM E-score of 8-mer” value turn out when AGCGTTAG was run?
The value was 0.207 ± 0.014.

Which “PBM E-score of 8-mer” value does the source give for ATGAACAG here?
Its value is -0.0699 ± 0.013.

How did the “PBM E-score of 8-mer” value turn out when ACTGACAG was run?
Its value is 0.19 ± 0.015.

Which “PBM E-score of 8-mer” value does the source give for CAGGCGTC here?
Its value is 0.254 ± 0.0077.

With CCATAATC as the sequence, how does the “PBM E-score of 8-mer” value read?
Its value is -0.225 ± 0.05.

How did the “PBM E-score of 8-mer” value turn out when AGGCTGAC was run?
The value was 0.141 ± 0.052.

Which “PBM E-score of 8-mer” value does the source give for ATGCCGTG here?
Its value is -0.116 ± 0.1.

AAGCTAGC was tested. Which “PBM E-score of 8-mer” value did it give?
The value was 0.036 ± 0.064.

CAGAGAAG was tested. Which “PBM E-score of 8-mer” value did it give?
Its value is -0.145 ± 0.04.

How did the “PBM E-score of 8-mer” value turn out when GGAATAGA was run?
The value was -0.269 ± 0.15.

AAGGGTAT was tested. Which “PBM E-score of 8-mer” value did it give?
Its value is -0.164 ± 0.026.

For GAAGTTGA, which “PBM E-score of 8-mer” value is on record?
Its value is 0.0232 ± 0.0042.

For CGACCGAA, which “PBM E-score of 8-mer” value is on record?
The value was -0.241 ± 0.048.

Which “PBM E-score of 8-mer” value does the source give for AGATCTAA here?
Its value is -0.0476 ± 0.065.

AGAGTGCG was tested. Which “PBM E-score of 8-mer” value did it give?
Its value is 0.288 ± 0.046.

GCCCGTAA was tested. Which “PBM E-score of 8-mer” value did it give?
Its value is -0.225 ± 0.044.

How did the “PBM E-score of 8-mer” value turn out when CGCCACTA was run?
Its value is 0.238 ± 0.018.

Which “PBM E-score of 8-mer” value does the source give for CGGAGACG here?
Its value is -0.205 ± 0.048.

For CGAACTGA, which “PBM E-score of 8-mer” value is on record?
Its value is -0.0267 ± 0.019.

With TCCACAGA as the sequence, how does the “PBM E-score of 8-mer” value read?
The value was -0.13 ± 0.045.

Which “PBM E-score of 8-mer” value does the source give for GAACTCCA here?
Its value is -0.0288 ± 0.045.

CGCCTAAG was tested. Which “PBM E-score of 8-mer” value did it give?
The value was 0.0221 ± 0.02.

With ATCGTGCG as the sequence, how does the “PBM E-score of 8-mer” value read?
The value was 0.159 ± 0.055.

Which “PBM E-score of 8-mer” value does the source give for CCAAGTCG here?
The value was 0.103 ± 0.048.

GCAGATAA was tested. Which “PBM E-score of 8-mer” value did it give?
The value was 0.0232 ± 0.027.

How did the “PBM E-score of 8-mer” value turn out when AATTATGA was run?
The value was -0.155 ± 0.0028.

How did the “PBM E-score of 8-mer” value turn out when AGCTTACG was run?
The value was -0.171 ± 0.071.

Which “PBM E-score of 8-mer” value does the source give for CCCACCTC here?
The value was 0.2907 ± 0.0021.

How did the “PBM E-score of 8-mer” value turn out when GAGACAGC was run?
The value was 0.0107 ± 0.051.

For GCCGCTGA, which “PBM E-score of 8-mer” value is on record?
The value was -0.113 ± 0.074.

AATGCTGA was tested. Which “PBM E-score of 8-mer” value did it give?
The value was -0.04853 ± 0.00042.

For GTATAAGA, which “PBM E-score of 8-mer” value is on record?
The value was -0.152 ± 0.019.

Which “PBM E-score of 8-mer” value does the source give for GACCCTCA here?
The value was -0.0733 ± 0.018.

For ATATACGC, which “PBM E-score of 8-mer” value is on record?
Its value is -0.0645 ± 0.11.

How did the “PBM E-score of 8-mer” value turn out when CGAAGTCC was run?
Its value is 0.047 ± 0.062.

For TGCCCGCA, which “PBM E-score of 8-mer” value is on record?
The value was -0.111 ± 0.027.

With ATTCTCTG as the sequence, how does the “PBM E-score of 8-mer” value read?
The value was -0.174 ± 0.12.

How did the “PBM E-score of 8-mer” value turn out when AGTTATCA was run?
The value was 0.23 ± 0.017.

For CGCCTCCG, which “PBM E-score of 8-mer” value is on record?
The value was 0.198 ± 0.041.

GAGCTATA was tested. Which “PBM E-score of 8-mer” value did it give?
Its value is -0.0341 ± 0.048.

Which “PBM E-score of 8-mer” value does the source give for AGAACTAT here?
The value was -0.19 ± 0.0047.

Which “PBM E-score of 8-mer” value does the source give for TGTATCAA here?
The value was -0.0371 ± 0.041.

For ACCCGAGC, which “PBM E-score of 8-mer” value is on record?
The value was -0.00295 ± 0.055.

How did the “PBM E-score of 8-mer” value turn out when GCCAGACA was run?
Its value is -0.0878 ± 0.03.

How did the “PBM E-score of 8-mer” value turn out when AGTGCTGG was run?
The value was -0.0402 ± 0.1.

CTACTGAC was tested. Which “PBM E-score of 8-mer” value did it give?
Its value is 0.111 ± 0.032.

With ATACCGGG as the sequence, how does the “PBM E-score of 8-mer” value read?
Its value is -0.18 ± 0.062.

For GGTGTCAC, which “PBM E-score of 8-mer” value is on record?
Its value is 0.481 ± 0.0062.

Which “PBM E-score of 8-mer” value does the source give for ACAAACTG here?
The value was -0.0233 ± 0.013.

For AGGCGAGG, which “PBM E-score of 8-mer” value is on record?
The value was 0.184 ± 0.027.

For CGGGAAGA, which “PBM E-score of 8-mer” value is on record?
Its value is -0.147 ± 0.021.

For ATGTTATC, which “PBM E-score of 8-mer” value is on record?
The value was 0.121 ± 0.0061.
